# In the supplement of paper PMC10126150:
# Values marked as one replicate rest on one cluster of the flow cell; about a third of the high ones do not repeat.
# System: ATP
# Assay: switch fluorescence ratio, 500 uM ATP over buffer (Cy3 cluster intensity, sum of 5 cycles each) (fold (ratio)); higher = stronger signal-on switching upon ATP binding; sequences stand for … in TCGTCGGCAGCGTCAGATGTGTATAAGAGACAGTTTTTTTTTTTTTTTTTTTTTTTTT…TC
# Details: aptamer strand: ATP DNA aptamer (quencher-CACCTGGGGGAGTATTGCGGAGGAAGG + anchor), 100 nM annealed; ATP concentration: 500 uM; one replicate
# Outline: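 Switching-strand clusters labelled with Cy3 on a modified Illumina MiSeq flow-cell were annealed to 100 nM quencher-labelled ATP aptamer, imaged in selection buffer, and re-imaged after 15 min with 500 uM ATP at 22 °C. This was done over five cycles with NaOH stripping and re-annealing in between. The fluorescence ratio is summed target-cycle over summed buffer-cycle Cy3 intensity per cluster, averaged per switch-domain sequence, excluding clusters outside 100-1000 RFU.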
# 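Further: ATP exposure 15 min at 22 °C before imaging.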
row,Sequence,switch fluorescence ratio
1,CTCTTTTCGG,0.988
2,TGGAGCAGC,1.18
3,GGTGTCATAA,0.981
4,AAGCAAATTA,1.03
5,GGAGTCAACG,0.978
6,TTAGCGAGGG,1.17
7,TGAAACGCTA,1.2
8,AATGATCCAC,1.05
9,GCGAAGCATC,1.04
10,TTATAATGTC,1.08
11,GCTATGATGT,0.976
12,GCGTTACGTA,1.05
13,ATGGTGATGA,0.995
14,AGGAAGTCGT,0.972
15,TGGTGTTTCG,0.98
16,TTCAGCTCAT,0.986
17,CAGGAATCAA,0.998
18,TGCCCTTTTG,1.06
19,GCGATATCAT,0.951
20,TTGCTGGG,0.952
21,ATTACAGTAG,1.03
22,AACTTATTCG,1.01
23,AGTTGCGCG,0.978
24,TCAGGGCTAC,0.985
25,GAAGTGCCTG,0.985
26,TTGCGCTACC,1.18

row,Sequence,switch fluorescence ratio
1,AATGCGGATT,0.996
2,TGTATAACCC,0.942
3,ACGTACCCTG,1.58
4,TAATTATTCC,1.17
5,AGACCCGTTA,1.02
6,GAGATTCACC,0.962
7,CGATGCTACT,1.41
8,TAGTGCGAAT,1.01
9,TGTTGTTACT,1.01
10,TCAGCACAGG,1.43
11,AGCGGAGGTG,0.866
12,ATCAAAAGAC,1.28
13,GATAGGGACC,1
14,AGAGGTTTGC,1.05
15,CCGAGAAAAC,2.36
16,AGTGAAAACG,1.04
17,TTTGGTCCTC,1.06
18,ACGGGTCACT,1.07
19,AACTGCAACC,1.45
20,AACAAACACG,1.1
21,ACTCCACGGA,1.46
22,TTCTATGTAG,1.01
23,CACGACGTCT,1.02
24,GTAGTCGAGT,0.995
25,AGTGGCAGCT,0.965
26,TCGCCATTCA,1.05

row,Sequence,switch fluorescence ratio
1,GAATCGGTTA,0.991
2,CTGAGTGCTG,0.967
3,GTTTCCTTCT,1.17
4,GTACGACACT,1.75
5,ATCGTAATCT,1.05
6,ATGGGCAGGA,1.25
7,AGCGGGCGGA,1.01
8,CAGTATCTAT,1.01
9,GCTTTAATAC,1.78
10,GCAGACTGTT,0.958
11,TTAGCACTGC,2.78
12,TAGAGTGGGT,0.979
13,CAACTTAAAA,1.01
14,TCTTCGTGCG,1.02
15,ATTAAATGCT,0.986
16,CGGTTCCAAA,1.05
17,ATAAGAACAC,1.44
18,TGGCGGGAGC,1.01
19,TGGTCATATT,0.984
20,GCAACGACTG,1.05
21,ATAGTAGCTT,0.98
22,AGAGCAAAGA,1.04
23,GGAGATACTC,1.09
24,GCTACAGTTG,0.959
25,ACGTTGGTCA,1.01
26,CGGGGCCTAT,0.994

row,Sequence,switch fluorescence ratio
1,GAGAATAGGA,1.02
2,CGCGGTCCT,1.12
3,CTCCAGGCAT,3.3
4,AAATCCGAAG,1.14
5,CAGTCAATAT,2.41
6,TGCTAGGTCT,0.979
7,CTGGCCTACT,1.02
8,TGAAAGAGT,1.02
9,CTCGTGCCTG,0.994
10,GGGTGTATAG,1.01
11,TCCTACTTT,0.991
12,TCAAGCATGG,0.996
13,TGTGTGAGGA,1.04
14,TAAACAGGCA,0.998
15,AACTAGAGTG,0.929
16,GTTGCCGATA,1.03
17,TCTGGAAGTA,1.04
18,ATGCCTCTTC,0.995
19,GAGCGGGCGA,1.08
20,CTTGGCTCGA,1.01
21,TTGTATGGA,0.992
22,ACCAAGTGCG,1.01
23,AACCCAATCC,1.61
24,CCTTAACAAT,2.32
25,CCTCTTATGA,1.2
26,GTTTAATTAT,0.974

row,Sequence,switch fluorescence ratio
1,AACTACGAAG,0.987
2,CAGTGGATAA,1.01
3,TAAATATAAC,1.02
4,GTCATGTTTT,1
5,AGTCGGATCG,0.974
6,CATTGATAAT,0.974
7,GGGAACGTGC,1.08
8,ATAAATAGTT,0.998
9,GCTGATAGGG,1.03
10,CGGCATTCTG,0.985
11,AAAGGTGT,1.21
12,GAAAAGACAG,1.05
13,TTTTGGGGG,0.991
14,TATGAGGGAA,1.01
15,AGGACCTTTT,1.01
16,TCGTACCTTA,1.05
17,AGTCTGTGCC,1
18,GGGGTACTGA,1.03
19,CAATCTCCTA,1.11
20,GCGTTGTAGA,1.01
21,TTATTTTACG,1.01
22,GGGACATTA,1.04
23,TGTGGGTCTT,0.982
24,GCGCCCTGAC,1.56
25,GTTATAAATT,0.984
26,GGTTGAGCTA,1.05

row,Sequence,switch fluorescence ratio
1,AAAGTCTACC,1.01
2,AGCGACCGTC,1.01
3,CTGCCAGGGG,1.01
4,CCACTGTCAG,1.02
5,AGCAGACCAT,1.02
6,CATCGAGGGT,1.04
7,AGGACGCT,1.05
8,ATCTTTCCCG,1.05
9,ATATGAGATT,0.999
10,TGTGGGATCA,1.04
11,AGGGTGGGAT,0.996
12,TGATTAGTTA,1.04
13,GCGACGTCAC,2.13
14,GGTATCCGCT,0.992
15,CAAGTTGTCC,1.03
16,CGTCTATTTT,0.997
17,CCCACCTGAG,1.31
18,TGCGCTCTCT,0.969
19,CCTAACATCG,1.06
20,TGACGATGGA,1.04
21,CACTACGGAA,2.73
22,CAAAGATCGC,1
23,TGTAATGGGC,0.991
24,ACTGTACTAA,1.37
25,TGTTCGGGGG,1
26,AGGCCCAAGA,1.04

row,Sequence,switch fluorescence ratio
1,AGAGTGAGCC,1.07
2,AATACAACAG,1.23
3,CTACACTGCT,0.926
4,ACGTGTGG,1.02
5,CTCGGACCAA,1.25
6,TTAGTCATCA,0.999
7,AGAGTAGTCT,1.02
8,GTATACTGAC,1.26
9,TGCTGCCGCG,1.02
10,GCATCTGTCT,0.997
11,TACCTTCTGT,1.19
12,CTAGCCTGGC,1.22
13,AGGGTGAGCA,1.01
14,CTGGGCAAAT,1.25
15,GTGAGCGATA,1.2
16,TAATAACCA,0.969
17,GTTCAGGAGA,1.01
18,CCGGTCGGCG,0.953
19,TTGCGAGCAG,1.04
20,TTGGGTGTCG,0.99
21,CCATGGCTAA,1.02
22,GACGGGTTT,0.997
23,TATATTATCC,0.99
24,TATGCATCGT,0.946
25,CGTTATGTCT,1.07
26,AAAACATAAA,1.07

row,Sequence,switch fluorescence ratio
1,TTCATTTACT,1.06
2,AGATCGCAAC,1.81
3,TTCGTTGGG,0.995
4,GATTCTGGCG,1.04
5,GTTTCCTTGG,0.983
6,ACAGCGCCC,1.05
7,TATAGCCCTG,1.01
8,TTGTCGCGGG,0.973
9,GGCCATT,1.05
10,TGAAATGAGA,0.991
11,CTTAAGCCTT,1.09
12,CCAATGTGGG,0.961
13,GTGTCGCAGT,1.03
14,ATTCGAAGGC,1
15,ATACGTTGGT,0.977
16,GGGATTCAGC,1.01
17,TTTCTGCGTT,1.71
18,TAGTGAAGG,0.974
19,ACCATGGTCT,0.965
